The campaign covered roughly 50,000 compounds. About 800 (1.6%) showed an effect of 50% or more. Some of the results follow.

The target of this assay is Bcl-2-like protein 10 (Homo sapiens) (UniProt Q9HD36). The experiment in a line: Phenotype converters, Bcl-B/TR3 peptide binding displacement, primary biochemical FP (AID 1240).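 Further: 0% = Bcl-B with tracer peptide and DMSO and 100% = tracer peptide lacking Bcl-B.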 To be noted: GST-Bcl-B / FITC-TR3 peptide fluorescence polarization; stronger effect = higher value; compound at 3.75 mg/L. A general note: In fluorescence polarisation assays a small probe gives low polarisation when free and higher when bound to something large.
Sequence of UniProt Q9HD36 (Q9HD36 whole entry, looked up): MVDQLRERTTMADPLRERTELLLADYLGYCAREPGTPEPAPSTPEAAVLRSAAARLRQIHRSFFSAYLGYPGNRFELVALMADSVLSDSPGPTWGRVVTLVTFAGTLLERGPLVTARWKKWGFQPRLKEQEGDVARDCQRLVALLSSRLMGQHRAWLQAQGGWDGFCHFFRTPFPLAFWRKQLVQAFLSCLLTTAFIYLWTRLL
As for `COc1cc(/C=C2\C(=O)N(C)C(=O)N(c3ccccc3)C2=O)cc(OC)c1O`, the displacement was -4.6%.
With `N#Cc1ccc(/C=N/N2C(=O)C3C(C2=O)C2C=CC3C23CC3)c([N+](=O)[O-])c1` (configuration not stated) the figure was 7.9%.
With `O=[N+]([O-])c1cccc(Nc2ncnc3ccc(Br)cc23)c1` the figure was -2.5%; with `COc1cc(NC(=O)COc2cccc(C)c2)cc(OC)c1`, 2.1%.
With `COc1ccc2c3c([nH]c2c1)C(=O)CCC3` the figure was 9.8%.
In the case of `Cn1c(NC(=O)c2ccc([N+](=O)[O-])cc2Cl)cc(=O)n(C)c1=O`, the displacement is 12.2%.
The result for `Cc1ccc(C(=O)C[n+]2ccccc2C)cc1[N+](=O)[O-]` reads 12.3%; that for `O=[N+]([O-])c1ccc(C2Nc3ccc(I)cc3C3C=CCC32)cc1` (configuration not stated), 9.4%.
For the compound `O=C(NC(=S)NNc1nc(-c2ccccc2)cs1)c1cc2ccccc2oc1=O`, the displacement was determined as 2.3%.
The result for `C=CCOc1ccccc1C=C1C(=O)NC(=S)NC1=O` reads 15.2%; that for `COC(=O)C1(CC(=O)C(C)(C)C)NN=C(c2ccccc2)S1` (configuration not stated), 10%.
The result for `CC1=C(C(=O)OCCc2ccccc2)C(c2ccc(Cl)cc2Cl)CC(=O)N1` (configuration not stated) reads -6.4%; that for `Cc1ccc(NC(=O)c2c(NC(=O)C(F)(F)F)sc(-c3ccccc3)c2C)c(C)c1`, -2.8%.
The result for `COc1ccc(Br)cc1/C=C/C(=O)Nc1ccc(Cl)cc1` reads 16.1%.
For the compound `CCN(CC)S(=O)(=O)c1cc(C(=O)Nc2cccc(O)c2)ccc1Cl`, the displacement is -2.1%.
With `COc1ccc(/C=C2\SC(=O)N(Cc3ccccc3)C2=O)cc1OC` the figure was 2.8%; with `CS(=O)(=O)N(Cc1ccc(C(=O)Nc2cccc(C(F)(F)F)c2)cc1)c1ccccc1`, 5.2%.
Turning to `O=C(O)c1ccccc1-c1ccccc1C(=O)Nc1ccc(Br)cn1`, the displacement was -15.4%.
For `O=C(Nc1ccc(Cl)c(Cl)c1)Nc1nnc(-c2ccc(Br)cc2)s1`, the displacement was 0.8%.
The result for `O=C(Nc1ccc2ccccc2c1)c1ccccc1F` reads -8.5%; that for `C/C(=N\O)c1ccc2c(c1)c1cc(/C(C)=N/O)ccc1n2C(C)C`, 2.5%.
With `O=C1CN(c2ccc(Cl)cc2)C(=O)N1`, the displacement was found to be 8%.
With `O=[N+]([O-])c1ccc(C2SCCN2S(=O)(=O)c2ccc3ccccc3c2)cc1` (configuration not stated) the figure was 11.2%.
As to `O=C(Nc1ccccc1)Nc1nnc(CSCc2ccc(F)cc2)s1`, the displacement was determined as 4%.
With `CCOC(=O)c1ccc2c(c1)C1C=CCC1C(c1ccc(F)cc1)N2` (configuration not stated) the figure was 8.4%; with `CC(C)(C)C(=O)/C=C(/N)c1ccccn1`, 14.1%; with `CCOc1cc(OCC)cc(C(=O)Nc2ccc(Cl)cc2)c1`, 11.9%.
With `O=C(c1ccc(Cl)cc1Cl)N1CCN(c2ccccc2)CC1` the figure was -13.3%; with `COc1cc([N+](=O)[O-])ccc1-c1ccc(/C=C2/SC(=S)N(c3ccccc3)C2=O)o1`, 8.8%.
The result for `O=C(Nc1ccc(F)c(F)c1)c1ccc2c(c1)OCO2` reads 4.2%; that for `Cc1ccc(N=Cc2ccccc2OCc2ccccc2)c(O)c1`, -14.2%; that for `Cn1ccnc1SCC(=O)n1c2c(c3ccccc31)CCCC2`, -9.5%.
In the case of `O=C1N=c2ccccc2=C1c1sc(=S)n(Cc2ccco2)c1O`, the displacement is 12.1%.
The result for `COC(=O)C1=C(C)NC(=O)CC1c1ccccc1Br` (configuration not stated) reads -0.4%; that for `CC(=O)COc1ccc2c3c(c(=O)oc2c1)CCC3`, -0.7%; that for `CCOc1cc(CNc2ccccc2)ccc1OC`, 4.5%.
Turning to `O=C1C(Nc2ccccc2)=CC(c2ccc3c(c2)OCO3)N1c1ccccc1` (configuration not stated), the displacement worked out at 0.4%.
With `Cc1cc(=O)oc2cc(OCC(=O)c3ccc(F)cc3)ccc12` the figure was 10.9%.
The result for `COc1ccc(C)cc1NC(=O)c1ccc(Cl)c(Cl)c1` reads -1.1%; that for `COc1ccc(CNC(=O)c2cnn3c(C(F)(F)F)cc(-c4ccc(OC)cc4)nc23)cc1`, 9.2%.
With `Cc1ccccc1OCC(=O)Nc1ccccc1C(C)C` the figure was -7.2%; with `COc1cccc(C(=O)N2CCN(Cc3ccco3)CC2)c1`, 5.7%.
Take `COc1cccc(-n2c(O)c(C=Nc3cc(OC)c(OC)c(OC)c3)c(=O)[nH]c2=O)c1`: the displacement was 3.7%.
With `CCN(CC)S(=O)(=O)c1ccc(C(C)(C)C)cc1` the figure was 5.3%.
The result for `COc1ccc(N2C(=O)c3ccccc3NC2c2ccc(OC)c(Cn3nc(C)c(Cl)c3C)c2)cc1` (configuration not stated) reads -4.3%.
Consider `O=C(CC1CCCCC1)NCc1ccccc1`, for which the displacement is 0.7%.
With `O=C(c1cc(Cl)cc(Cl)c1)n1ccnc1` the figure was 2.1%.
As to `O=C(O)C1CC=CCC1C(=O)N1CCN(c2ccc(F)cc2)CC1` (configuration not stated), the displacement is -0.2%.
The result for `C=CC(=O)NC(NC(=O)C=C)c1cccc([N+](=O)[O-])c1` reads -8.2%; that for `COc1ccc(C(=O)CC(CC(=O)c2ccc(OC)cc2)c2cccs2)cc1`, 12%.
With `O=C(O)C1CCCCC1C(=O)N1CCN(c2cccc(Cl)c2)CC1` (configuration not stated) the figure was -17.3%; with `Cc1cc(Cl)ccc1OCC(=O)N1CCN(c2ccccc2)CC1`, -2.3%.
The result for `COC(=O)C1=C(C)NC(=S)NC1c1ccc(Cl)cc1` (configuration not stated) reads 10.4%.
With `CC(=O)c1ccc(C(C)(C)C)cc1NC(=O)c1ccccc1`, the displacement is -0.9%.
The result for `COc1ccccc1NC(=O)N1CCc2ccccc21` reads -3%; that for `COc1ccc(/C=C(/C#N)C(=O)Nc2cccc(Br)c2)cc1C`, -20.8%; that for `O=C1NC(=S)S/C1=C/c1ccc(Cl)cc1`, 5.6%.
With `Cc1cc([N+](=O)[O-])ccc1NC(=O)/C=C/c1ccc2c(c1)OCO2` the figure was 3.9%.
Consider `COc1ccc(NC(=S)N/C(=N\S(=O)(=O)c2ccccc2)c2ccccc2)cc1`, for which the displacement came to 13.2%.
The result for `COc1cc2ccccc2cc1C(=O)Nc1cccc(-c2nc3cc(C)cc(C)c3o2)c1C` reads 26.5%.
The result for `O=C(Nc1ccc(NC(=O)c2cccc(F)c2)cc1)c1cccc(F)c1` reads 5.9%.
With `COc1ccc(-c2noc(COc3ccc(C)cc3Br)n2)cc1` the figure was 6.5%; with `S=C(NCCc1ccccc1)Nc1ccc(Cl)cc1Cl`, -5.1%; with `CCN(C(=O)c1ccc(C)c([N+](=O)[O-])c1)c1ccccc1C`, 4.1%.
For `Cc1cccc(-c2cc(NC(=O)c3ccccc3[N+](=O)[O-])n[nH]2)c1`, the displacement is 7.3%.
With `CCCOc1ccc(C(=O)Nc2nc3ccc(OCC)cc3s2)cc1` the figure was 3.9%; with `Cc1ccc(C(=O)N/C(=C/c2ccccc2F)C(=O)NN)cc1`, -13.8%.
Consider `CC1=C(C(=O)OC(C)C)C(c2ccccc2F)CC(=O)N1` (configuration not stated), for which the displacement was -19.1%.
The result for `CC1(C)C2CCC1(C)C(NC(=O)C1CC3c4ccccc4C1c1ccccc13)C2` (configuration not stated) reads 0.9%; that for `O=C(NNc1ccc([N+](=O)[O-])cc1[N+](=O)[O-])c1ccc(O)cc1`, -7.4%; that for `CCOc1ccccc1N1C(=O)c2cccc3cccc(c23)C1=O`, -1.8%.
With `CCN(CC)c1ccc(N=Cc2ccc3ccccc3c2)cc1` the figure was -6.1%.

Values taken from PubChem BioAssay AID1240 (Sanford-Burnham Center for Chemical Genomics, 2008).
